A lower IC50 marks a more sensitive line; a fit beyond the top or the lowest dose is shown as a bound at that dose. AUC sums up the same curve from the lowest dose to the 256-fold higher top dose: 1 means no effect, lower means more sensitive. A top dose marked as inferred is not printed in the source and was worked back from the curve model.
Columns and labels:
Test in all cases: Viability of human cancer cell lines after 72 h of drug (GDSC screen)
[1] = compound: C=CC(=O)N1CCc2ccc(-n3c(=O)ccc4cnc5ccc(-c6cnn(C)c6)cc5c43)cc21 [QL-XII-47]; details: top dose 10.24 µM; top dose inferred
Procedure: (§1)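 Human cancer cell lines in 384-well plates, medium with 10% serum, drug for 72 h over a 256-fold dose range (nine 2-fold or five 4-fold steps up to the top dose). Adherent lines were fixed and stained with the nucleic acid dye Syto60, suspension lines read with resazurin; signal relative to control wells, capped at 0 and 100%. One two-parameter sigmoid per drug and line, fitted in a mixed model over all curves with the slope shared within a line.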

[2] = compound: CCN1CCC(n2cc(CNc3cc(Cl)c4ncc(C#N)c(Nc5ccc(F)c(Cl)c5)c4c3)nn2)CC1 [KIN001-266]; details: top dose 20 µM; top dose inferred
Procedure: as §1

[3] = compound: COc1ccc(-c2cc3nccn3c(Nc3ncccc3C(N)=O)n2)cc1OC [BAY 61-3606]; details: top dose 8 µM; top dose inferred
Procedure: as §1

[4] = compound: O=C1/C(=C/c2cccs2)CC/C1=C\c1cccs1 [CCT007093]; details: top dose 6.6 µM; top dose inferred
Procedure: as §1

For Hs683 (glioma, adherent), the AUC [1] was 0.727, the IC50 [1] was 2.85 µM and the AUC [2] was 0.973. For the same cell line, the IC50 [2] was greater than 20 µM, the AUC [3] was 0.874 and the IC50 [3] was 7.93 µM. The AUC [4] was 0.985 and the IC50 [4] was greater than 6.6 µM.
In the case of H9 (lymphoid neoplasm, suspension), the AUC [1] is reported as 0.626, the IC50 [1] is reported as 1.33 µM and the AUC [2] is reported as 0.891. For the same cell line, the IC50 [2] was 16.1 µM, the AUC [3] was 0.908 and the IC50 [3] was 7.63 µM. For the same cell line, the AUC [4] was 0.992 and the IC50 [4] was greater than 6.6 µM.
22RV1 (prostate, adherent) gave an AUC [1] of 0.411, an IC50 [1] of 0.343 µM and an AUC [2] of 0.868. For the same cell line, the IC50 [2] was greater than 20 µM, the AUC [3] was 0.895 and the IC50 [3] was greater than 8 µM. For the same cell line, the AUC [4] was 0.946 and the IC50 [4] was greater than 6.6 µM.
CAL-33 (head and neck, adherent) was tested, and the AUC [1] was 0.635, the IC50 [1] was 1.51 µM and the AUC [2] was 0.948. The IC50 [2] was greater than 20 µM, the AUC [3] was 0.892 and the IC50 [3] was greater than 8 µM. For the same cell line, the AUC [4] was 0.944 and the IC50 [4] was greater than 6.6 µM.
With LB996-RCC (kidney, adherent) the AUC [1] was 0.982, the IC50 [1] was greater than 10.2 µM and the AUC [2] was 0.98. The IC50 [2] was greater than 20 µM, the AUC [3] was 0.68 and the IC50 [3] was 1.74 µM. The AUC [4] was 0.874 and the IC50 [4] was greater than 6.6 µM.
OAW-42 (ovary, adherent) was tested, and the AUC [1] was 0.684, the IC50 [1] was 2.19 µM and the AUC [2] was 0.982. The IC50 [2] was greater than 20 µM, the AUC [3] was 0.884 and the IC50 [3] was greater than 8 µM. It also gave an AUC [4] of 0.973 and an IC50 [4] greater than 6.6 µM.
For “SBC-3 (small cell lung carcinoma, adherent)”, the AUC [1] was 0.197, the IC50 [1] was 0.0899 µM and the AUC [2] was 0.874. It also gave an IC50 [2] of 16.4 µM, an AUC [3] of 0.492 and an IC50 [3] of 0.478 µM. For the same cell line, the AUC [4] was 0.989 and the IC50 [4] was greater than 6.6 µM.
In the case of SJRH30 (rhabdomyosarcoma, adherent), the AUC [1] is reported as 0.582, the IC50 [1] is reported as 1.08 µM and the AUC [2] is reported as 0.875. For the same cell line, the IC50 [2] was greater than 20 µM, the AUC [3] was 0.947 and the IC50 [3] was greater than 8 µM. For the same cell line, the AUC [4] was 0.974 and the IC50 [4] was greater than 6.6 µM.
IGR-1 (melanoma, adherent) showed an AUC [1] of 0.68, an IC50 [1] of 1.9 µM and an AUC [2] of 0.739. For the same cell line, the IC50 [2] was 5.43 µM, the AUC [3] was 0.858 and the IC50 [3] was 5.3 µM. It also gave an AUC [4] of 0.978 and an IC50 [4] greater than 6.6 µM.
SCC-15 (head and neck, adherent) gave an AUC [1] of 0.839, an IC50 [1] greater than 10.2 µM and an AUC [2] of 0.868. For the same cell line, the IC50 [2] was greater than 20 µM, the AUC [3] was 0.886 and the IC50 [3] was greater than 8 µM. The AUC [4] was 0.977 and the IC50 [4] was greater than 6.6 µM.
For “NCI-H510A (small cell lung carcinoma, semi-adherent)”, the AUC [1] was 0.982, the IC50 [1] was greater than 10.2 µM and the AUC [2] was 0.861. It also gave an IC50 [2] of 14.7 µM, an AUC [3] of 0.933 and an IC50 [3] greater than 8 µM. The AUC [4] was 0.989 and the IC50 [4] was greater than 6.6 µM.
For “NCI-H661 (large cell lung carcinoma, adherent)”, the AUC [1] was 0.805, the IC50 [1] was 6.48 µM and the AUC [2] was 0.846. The IC50 [2] was 19.5 µM, the AUC [3] was 0.871 and the IC50 [3] was greater than 8 µM. For the same cell line, the AUC [4] was 0.887 and the IC50 [4] was greater than 6.6 µM.
JIMT-1 (breast, adherent) was tested, and the AUC [1] was 0.872, the IC50 [1] was greater than 10.2 µM and the AUC [2] was 0.892. For the same cell line, the IC50 [2] was greater than 20 µM, the AUC [3] was 0.807 and the IC50 [3] was 4.51 µM. The AUC [4] was 0.969 and the IC50 [4] was greater than 6.6 µM.
With BC-1 (B-cell lymphoma, suspension) the AUC [1] was 0.294, the IC50 [1] was 0.187 µM and the AUC [2] was 0.837. The IC50 [2] was 10.7 µM, the AUC [3] was 0.656 and the IC50 [3] was 1.26 µM. For the same cell line, the AUC [4] was 0.989 and the IC50 [4] was greater than 6.6 µM.
For H2731 (mesothelioma, adherent), the AUC [1] was 0.967, the IC50 [1] was greater than 10.2 µM and the AUC [2] was 0.615. It also gave an IC50 [2] of 2.71 µM, an AUC [3] of 0.983 and an IC50 [3] greater than 8 µM. For the same cell line, the AUC [4] was 0.969 and the IC50 [4] was greater than 6.6 µM.

Reference: the supplement of paper PMC4967469
